# Assay results published in a collection of fitness landscapes (doi:10.1126/science.1257360).
# The other results are listed elsewhere or left out.
# B1: PhoQ; a variant is named by its letters at X, in order, P23837 (parent)
# chain: MKKLLRLFFPLSLRVRFLLATAAVVLVLSLAYGMVALIGYSVSFDKTTFRLLRGESNLFYTLAKWENNKLHVELPENIDKQSPTMTLIYDENGQLLWAQRDVPWLMKMIQPDWLKSNGFHEIEADVNDTSLLLSGDHSIQQQLQEVREDDDDAEMTHSVAVNVYPATSRMPKLTIVVVDTIPVELKSSYMVWSWFIYVLSANLLLVIPLLWVAAWWSLRPIEALAKEVRELEEHNRELLNPATTRELTSLVRNLNRLLKSERERYDKYRTTLTDLTHSLKTPLXXLQXXLRSLRSEKMSVSDAEPVMLEQISRISQQIGYYLHRASMRGGTLLSRELHPVAPLLDNLTSALNKVYQRKGVNISLDISPEISFVGEQNDFVEVMGNVLDNACKYCLEFVEISARQTDEHLYIVVEDDGPGIPLSKREVIFDRGQRVDTLRPGQGVGLAVAREITEQYEGKIVAGESMLGGARMEVIFGRQHSAPKDE
# Variants of: B1
# Test: enrichment ratio after two sorts for PhoP signalling (ratio (wild type AVST 3.29)); higher = more functional
# Conditions: with PhoP (E. coli)
row,Variant,enrichment ratio
1,YINR,≤ 0.25
2,SDPW,≤ 0.25
3,NMIF,≤ 0.25
4,AGSM,4.42
5,IAEM,≤ 0.25
6,CFSG,≤ 0.25
7,NWRC,≤ 0.25
8,PLKM,≤ 0.25
9,VNHY,≤ 0.25
10,QLTS,≤ 0.25
11,RRDP,≤ 0.25
12,KMRK,≤ 0.25
13,GLKS,≤ 0.25
14,LTHN,≤ 0.25
15,THGL,6.65
16,VLII,≤ 0.25
17,GAMG,≤ 0.25
18,TMQM,12.8
19,NLTR,≤ 0.25
20,ICQA,≤ 0.25
21,LKPE,≤ 0.25
22,DEWG,≤ 0.25
23,LLIG,≤ 0.25
24,DPVI,≤ 0.25
25,PDPW,≤ 0.25

row,Variant,enrichment ratio
1,VCVA,≤ 0.25
2,LTDP,≤ 0.25
3,FYME,≤ 0.25
4,DMVA,≤ 0.25
5,YIYV,≤ 0.25
6,QFCT,≤ 0.25
7,ICNN,≤ 0.25
8,GEWL,≤ 0.25
9,VCPT,≤ 0.25
10,MYLW,≤ 0.25
11,WDYA,≤ 0.25
12,PIIH,≤ 0.25
13,VYYQ,≤ 0.25
14,LNLP,≤ 0.25
15,IRNR,≤ 0.25
16,SQTG,9.26
17,PSKY,≤ 0.25
18,NGRM,≤ 0.25
19,TEYG,1.95
20,GIVA,9.51
21,IHTV,≤ 0.25
22,IDDW,≤ 0.25
23,TWLI,≤ 0.25
24,PCQQ,≤ 0.25
25,VRKE,≤ 0.25

row,Variant,enrichment ratio
1,VEVS,3.82
2,LIPD,≤ 0.25
3,YMFG,≤ 0.25
4,SPSN,≤ 0.25
5,LWKG,≤ 0.25
6,GLED,≤ 0.25
7,DWVY,≤ 0.25
8,HDFL,≤ 0.25
9,IFFF,≤ 0.25
10,KLIL,≤ 0.25
11,ENGY,≤ 0.25
12,IDVN,≤ 0.25
13,YMGW,≤ 0.25
14,HFQQ,≤ 0.25
15,HNGF,≤ 0.25
16,FYRG,≤ 0.25
17,RNNN,≤ 0.25
18,FSCK,≤ 0.25
19,NVMG,≤ 0.25
20,VGPP,≤ 0.25
21,QARH,≤ 0.25
22,NSYG,≤ 0.25
23,TSHS,5.44
24,HFSE,≤ 0.25
25,LSAK,≤ 0.25

row,Variant,enrichment ratio
1,DRDF,≤ 0.25
2,ENYC,≤ 0.25
3,MRIA,≤ 0.25
4,ADQN,≤ 0.25
5,RCII,≤ 0.25
6,MCSR,≤ 0.25
7,SSLW,0.881
8,GPWP,≤ 0.25
9,QLLQ,≤ 0.25
10,RTFL,≤ 0.25
11,YHYV,≤ 0.25
12,LALH,≤ 0.25
13,PIAG,≤ 0.25
14,NDDK,≤ 0.25
15,IRID,≤ 0.25
16,QNWC,≤ 0.25
17,YNTK,≤ 0.25
18,DDHF,≤ 0.25
19,GLKF,≤ 0.25
20,DSFF,≤ 0.25
21,FRLM,≤ 0.25
22,KINP,≤ 0.25
23,KDFW,≤ 0.25
24,SDTE,≤ 0.25
25,MGIN,≤ 0.25

row,Variant,enrichment ratio
1,ELFM,≤ 0.25
2,IDSG,≤ 0.25
3,AAGP,≤ 0.25
4,HFPI,≤ 0.25
5,EECH,≤ 0.25
6,FMNR,≤ 0.25
7,LSNS,≤ 0.25
8,GNHT,≤ 0.25
9,PVFD,≤ 0.25
10,LHHT,≤ 0.25
11,SMPE,0.359
12,MVYI,≤ 0.25
13,DAVY,≤ 0.25
14,LMCA,≤ 0.25
15,YHSE,≤ 0.25
16,AQYC,≤ 0.25
17,QYWC,≤ 0.25
18,PYIA,≤ 0.25
19,THEF,≤ 0.25
20,GRNL,≤ 0.25
21,HFAL,≤ 0.25
22,MAVA,≤ 0.25
23,IIHD,≤ 0.25
24,DYCE,≤ 0.25
25,IHFE,≤ 0.25

row,Variant,enrichment ratio
1,ADTK,≤ 0.25
2,IQFH,≤ 0.25
3,ECFD,≤ 0.25
4,EFLH,≤ 0.25
5,AFAW,≤ 0.25
6,TNPV,≤ 0.25
7,QVTN,≤ 0.25
8,QKTV,≤ 0.25
9,MAME,≤ 0.25
10,IWCP,≤ 0.25
11,PPRY,≤ 0.25
12,MLQG,≤ 0.25
13,AHGI,≤ 0.25
14,QSYD,≤ 0.25
15,YEAT,≤ 0.25
16,QAHF,15.5
17,IQHC,≤ 0.25
18,LNDV,≤ 0.25
19,GARS,≤ 0.25
20,LKHP,≤ 0.25
21,PCVL,≤ 0.25
22,LTFQ,4.48
23,VPPK,≤ 0.25
24,MVNN,≤ 0.25
25,LERV,≤ 0.25

row,Variant,enrichment ratio
1,GAIH,≤ 0.25
2,DRET,≤ 0.25
3,PQRS,≤ 0.25
4,NYSE,≤ 0.25
5,KSHK,≤ 0.25
6,TDLY,2.03
7,GVAT,≤ 0.25
8,ADDQ,≤ 0.25
9,DQYI,≤ 0.25
10,FDEC,≤ 0.25
11,DGTW,≤ 0.25
12,MDAY,≤ 0.25
13,LPWV,≤ 0.25
14,GCIV,≤ 0.25
15,EARD,≤ 0.25
16,YFNH,≤ 0.25
17,RSTT,≤ 0.25
18,SHPL,≤ 0.25
19,GSPM,0.891
20,FEWQ,≤ 0.25
21,HSTV,9.02
22,LCVH,≤ 0.25
23,MTLV,6.98
24,FGHS,≤ 0.25
25,TMRA,0.554

row,Variant,enrichment ratio
1,PKNS,≤ 0.25
2,FEVN,≤ 0.25
3,SWRR,≤ 0.25
4,DLMY,≤ 0.25
5,NFPI,≤ 0.25
6,QFIC,≤ 0.25
7,PTCE,≤ 0.25
8,IYWV,≤ 0.25
9,LGCF,≤ 0.25
10,VHGT,≤ 0.25
11,MVMM,≤ 0.25
12,DFGG,≤ 0.25
13,HWTL,≤ 0.25
14,QEFY,≤ 0.25
15,IVVH,≤ 0.25
16,FLIM,≤ 0.25
17,HDTN,≤ 0.25
18,TDNF,≤ 0.25
19,AHGG,≤ 0.25
20,TPCK,≤ 0.25
